Source: ChEMBL document CHEMBL4888484, “Replenishing the malaria drug discovery pipeline: Screening and hit evaluation of the MMV Hit Generation Library 1 (HGL1) against asexual blood stage Plasmodium falciparum ,using a nano luciferase reporter read-out” (2022)
In all, about 150,000 compounds went through this assay and about 540 (0.36%) showed an effect of 50% or more. Some of the results follow.

These molecules were tested on Plasmodium falciparum (assay: Primary screen in NF54 nanoGlo assay, in single point, at 2uM, 72h; a lower Z score goes with more inhibition). Conditions: timepoint 72 hour.
Assay type: functional, Erythrocyte

| Structure (SMILES) | % Inhibition | Z score |
| --- | --- | --- |
| OC[C@@]1(Cc2ccc(F)cc2)CCN(c2cc(OCC3CC3)ccn2)C1 | -12% | 2.19 |
| CCc1ncc(NC(=O)N(CCN(C)C)C(C)C)cn1 | -12% | 1.18 |
| COc1ccccc1N1CCN(C(=O)c2nnn(-c3ccccc3Cl)c2-c2cccnc2)CC1 | 50% | -6.51 |
| Cc1cnn(C[C@H]2CCCN2c2ncccc2C#N)c1 | 12% | -1.58 |
| Cc1nscc1C(=O)N[C@@H](CC(=O)O)Cc1cc(F)c(F)cc1F | 1% | -0.22 |
| CC(=O)Nc1c(-c2ccccn2)nsc1C(=O)NC1CCCCC1 | -1% | 0.12 |
| COCC1(CNCc2ccc(C(=O)O)cc2)CCC1 | -11% | 2.29 |
| Cc1ccc(NC(=O)c2cn(-c3cc(-c4noc(C5CC5)n4)ccc3C)nc2C)cc1C | -18% | 2.13 |
| Cn1c(=O)[nH]c(=O)c2cc(S(=O)(=O)N3CCCCC3)cnc21 | -6% | 1.12 |
| Cc1cccc(C(=O)NCCc2nnc3n2CCCC3)c1 | -13% | 1.8 |
| Cc1nc(C)c(F)c(N[C@H]2CCCNC2=O)n1 | 5% | -0.81 |
| Cc1cc(-c2c(-c3ccccc3)ncn2Cc2cccnc2)oc1C | 9% | -1.83 |
| Cn1cc(C(=O)OCCc2ccc(F)cc2F)cn1 | -13% | 1.37 |
| CN(C)c1cncc(C(=O)NS(=O)(=O)C2C[C@@H]3CC[C@H]2C3)c1 (some centres undefined) | 1% | -0.17 |
| CC1CCN(C[C@@H](O)CNc2cc(C#N)ccn2)CC1 | -2% | 0.45 |
| COc1ccc(C)cc1N(C)C(=O)Cn1ccc2c(=O)n(C)c(=O)n(C)c21 | -11% | 1.08 |
| CCCc1cc(C(=O)N(CC(=O)O)C2CCCCCC2)n(C)n1 | -14% | 1.39 |
| Cc1ccc(S(=O)(=O)N(C)c2cncc(C(=O)N[C@@H](C)CCc3ccccc3)c2)cc1 | -13% | 2.36 |
| CCn1cc(CC(=O)OC[C@H]2COC(C)(C)O2)c2ccccc21 | -12% | 1.01 |
| O=C(NCC1(NC(=O)C2=CCCC2)CCOCC1)C1=CCCC1 | -17% | 1.97 |
| CCc1oc(C(=O)N2CC[S@+]([O-])C(C)(C)C2)cc1C | -8% | 1.07 |
| Cc1ccc(NC(=O)c2ncoc2C(C)C)c(CN(C)C)c1 | -2% | 0.34 |

| Structure (SMILES) | % Inhibition | Z score |
| --- | --- | --- |
| CC1(C)CN(S(=O)(=O)c2cncc(F)c2)[C@@H]1c1cccs1 | -7% | 0.7 |
| Cc1csc[n+]1CC(=O)c1ccc(C(F)(F)F)cc1 | 29% | -3.29 |
| NC(=O)c1ccc(CNC(=O)C2CCCCCC2)o1 | -4% | 0.36 |
| Cc1ccc(NC(=O)Cc2nnc(-c3cnccn3)o2)c(Cl)c1 | -12% | 1.25 |
| CO[C@@H](CNc1nc(C)cc(C#N)n1)C(C)(C)C | -16% | 2.1 |
| CC(C)Cc1ncc(NC(=O)N[C@@H]2CCCc3cccnc32)cn1 | -8% | 0.87 |
| COc1cc(-c2nccn2[C@H]2CCCN(c3ncccn3)C2)cc2c1OCO2 | -19% | 2.1 |
| CC(OCC(F)(F)F)C(=O)Nc1ccc(N(C)C(=O)C(C)OCC(F)(F)F)nc1 (centres undefined) | -8% | 0.77 |
| O=S1(=O)CC=C(CNCc2ccccc2)C1 | -18% | 2.87 |
| O=C(NCC1CC1)C1(NCc2ccc3cn[nH]c3c2)CCCC1 | -7% | 0.93 |
| Cc1csc(CNC(=O)[C@@H](C)C2CCOCC2)n1 | -3% | 0.52 |
| c1cc2c(cc1CN1CCN3CCCC3C1C1CCCCC1)OCO2 (centres undefined) | -21% | 2.64 |
| Cc1nc(C(=O)NCC2C3CCc4ccccc4C32)c(=O)[nH]c1C (centres undefined) | -5% | 0.71 |
| Cc1ccc([C@@H]2CCCCCN2S(=O)(=O)Cc2ccccc2)s1 | -4% | 0.76 |
| O=C(N[C@@H]1C[C@@H]2CC(C(=O)O)C[C@@H]21)c1ccc(-c2c[nH]cn2)cc1 (some centres undefined) | -3% | 0.56 |
| CCNC(=O)C1CCN(C(=O)Nc2ccc(NC(=O)NC3CCCCC3)cc2)CC1 | -8% | 0.96 |
| CCS(=O)(=O)CCn1cc(NC(=O)Cc2c(C)noc2C)cn1 | -12% | 1.21 |
| O[C@H]1C[C@H]2CC[C@@H](C1)N2c1ncc(F)c(N2CCOCC2)n1 | -6% | 0.55 |
| N#Cc1c(CN2CCn3ccnc3C2)cn2ccccc12 | 7% | -1.41 |
| Cc1cnc(C(=O)N2CC[C@H](OCc3ccccc3)C2)cn1 | -8% | 0.93 |
| O[C@@H](COCc1ccccc1)Cn1cnnc1 | -4% | 0.51 |
| COc1ccccc1OCC#CCNC(=O)Nc1ccc(C)c(C)c1 | -6% | 0.94 |

| Structure (SMILES) | % Inhibition | Z score |
| --- | --- | --- |
| c1ccc(-c2noc(-c3cc(-c4ccc5ccccc5c4)n[nH]3)n2)cc1 | -7% | 0.81 |
| Cc1ccc(-n2nc(C#N)c(N3CCOCC3)n2)cc1 | 10% | -1.2 |
| COCCn1nc(C)c(NCc2cscn2)c1C | -16% | 1.73 |
| COCC1(CS(=O)(=O)N[C@@H](C)Cc2c(C)noc2C)CCC1 | 33% | -3.73 |
| O=C1CC[C@H](C(=O)N2CCCCCCC2)CN1Cc1ccccn1 | -17% | 3.26 |
| COc1ccc([C@@H](C)COC(=O)c2ncoc2C)cc1 | 1% | -0.15 |
| CC(NC(=O)N(C)CC1CCCCC1O)c1ccncc1 (centres undefined) | -4% | 0.59 |
| CN1CCCc2ccc(NC(=O)c3ccc(CC4CCN(S(C)(=O)=O)CC4)cc3)cc21 | 28% | -3.46 |
| O=C(NCC(=O)N1CC[C@H](CN2CCOCC2)C1)c1ccc(C(F)(F)F)cc1 | 2% | -0.32 |
| C[C@H]1C(=O)NCCCN1C(=O)c1coc(-c2ccccc2Cl)n1 | -7% | 1.08 |
| Cc1c(CNC(=O)CN(C)S(=O)(=O)c2ccc3c(c2)OCCCO3)cnn1C | 0% | -0.03 |
| CNC(=O)[C@H](NC(=O)C1(CCOC)CCC1)c1ccc(F)c(F)c1 | -5% | 0.81 |
| CN1CCN([C@H]2CCN(C(=O)C(C)(C)c3ccccc3)C[C@H]2CCC(=O)O)CC1 | -8% | 1.64 |
| CCn1cc(NC(=O)C2(NC(=O)OC(C)(C)C)CCCC2)cn1 | -9% | 1.04 |
| Cc1ccc2c(Nc3ccc(Cl)cc3)c(C(=O)N3CCOCC3)cnc2n1 | 2% | -0.27 |
| Cn1ccnc1CCN1CCC(C)(C#N)CC1 | -1% | 0.19 |
| O=C(Nc1cccc(C(O)C(F)(F)F)c1)C1CCCCO1 (centres undefined) | -24% | 3.28 |
| O=C(Cn1ccccc1=O)Nc1ccc2oc(C3CC3)nc2c1 | -10% | 0.99 |
| N#Cc1ccccc1CN1CCC(Oc2ccccc2F)(C(=O)O)CC1 | -22% | 1.93 |
| COc1cc(NC(=O)N2CC(C)(C)O[C@H]3COC[C@@H]32)n(C)n1 | -3% | 0.35 |
| COCCN(CC(=O)N(CCc1ccccc1)Cc1ccco1)C(=O)Nc1c(Cl)cccc1Cl | -11% | 1.42 |
| C=C1C(C)(C)[C@@H]2CC[C@@]1(C(=O)N1CCn3c(C(N)=O)cnc3C1)C2 | -14% | 2.1 |

| Structure (SMILES) | % Inhibition | Z score |
| --- | --- | --- |
| CCCNC(=O)C1CCN(c2nc3ncn(CC(=O)NC[C@H]4CCCO4)c(=O)c3s2)CC1 | -5% | 0.72 |
| Cc1nc([C@@H]2CN(C)c3ccccc3O2)n(CCO)n1 | 1% | -0.12 |
| CN1C[C@@H](n2cnc3c(F)cccc3c2=O)CC1=O | -2% | 0.27 |
| COC(=O)c1ccc(C)c(S(=O)(=O)Oc2ccc(N3CCN(C(C)=O)CC3)cc2)c1 | 4% | -0.54 |
| COc1cccc2c1C(C(=O)N1C[C@H](F)C[C@H]1C(=O)N1CCOCC1)CC2 (some centres undefined) | -3% | 0.62 |
| CCN1C(=O)[C@@H]2CN(Cc3cnc(-c4ccccc4)o3)CCN2C1=O | -2% | 0.5 |
| Cn1nccc1Cc1noc(C2CCC2)n1 | -8% | 0.93 |
| CCn1ccnc1CN1CCC[C@H](CCC(=O)N2CCN(c3ccccn3)CC2)C1 | -11% | 1.65 |
| COc1ccc(CCc2nc3nccc(-c4cccnc4)n3n2)cc1OC | 2% | -0.41 |
| COc1ccc(CC(=O)N2CCC[C@H]2c2ccncc2)cc1OC | – | 0.93 |
| CCc1ccc(C2CC(C)CCN2C(=O)Cc2cnn(C)c2)o1 (centres undefined) | -4% | 0.52 |
| O=C(NCc1cc(C2CC2)[nH]n1)c1cncc(F)c1 | 0% | 0 |
| O=C(CN1C(=O)c2ccccc2Oc2ncccc21)N1CCOCC1 | 8% | -1.2 |
| C[C@]1(O)CCN(Cc2ccc3c4c(cccc24)C(=O)OC3)C[C@@H]1O | -1% | 0.17 |
| CC[C@H](Nc1ccc2c(c1)CCN2C(C)=O)C(=O)Nc1cc(C)on1 | 4% | -0.58 |
| CCN(CC)[C@@]1(c2nnnn2C2CCCC2)CCN(C(=O)c2cc(C)on2)C1 | -2% | 0.26 |
| Cc1nccn1CCn1ncc(N2CCc3ccccc3C2)cc1=O | -17% | 3.28 |
| Cc1ccc(S(=O)(=O)c2ncccc2CNCc2cccnc2)cc1 | -9% | 0.83 |
| O=C(NC1CCCC1)C1C2CCC(C2)N1C(=O)NC1CCCCC1 (centres undefined) | -11% | 1.91 |
